Laboratory results published in the supplement of paper PMC7826260.
The list shows a part of the results. Viral Rep nickase domains cut single-stranded DNA in vitro (1 h at 37 °C, 3 µM enzyme); the outer parts of the 90-letter strands are left off. Numbers give uncut DNA relative to the enzyme-free pool, as log2; the lower, the more was cut; hits are not called. Reads are scaled to the total; values above 0 arise when much of the pool is cut.

Each sequence was assayed on T1, Rep nickase domain of tomato yellow leaf curl virus (assay: uncleaved DNA left, log2 of reads against the no-enzyme library (log2 ratio); higher = less cleavage (more negative = more Rep cleavage of the k-mer); sequences stand for … in CTCGTCCG…ACCGGAGA).
T1 sequence (residues 1-136, tag not shown): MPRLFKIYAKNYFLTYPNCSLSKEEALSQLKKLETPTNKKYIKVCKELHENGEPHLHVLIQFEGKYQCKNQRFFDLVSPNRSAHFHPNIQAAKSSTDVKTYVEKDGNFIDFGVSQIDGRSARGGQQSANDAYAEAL
Procedure: (§1)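 A pool of 90-nt single-stranded DNAs with seven random bases just before the constant AC of the nick site (name = the seven bases) was cut by 3 µM recombinant His6-SUMO-tagged Rep nickase domain (300 nM DNA, 50 mM HEPES pH 8.0, 50 mM NaCl, 1 mM MnCl2, 1 h, 37 °C, three replicates). Uncut DNA was amplified and sequenced.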

Row | Sequence | uncleaved DNA left (log2)
1 | GATCGCT | -0.0677
2 | CAATATC | -0.0574
3 | TTATGGT | 0.0166
4 | CTATGCT | -0.0519
5 | TTTTCAG | 0.0383
6 | TAGCGTT | 0.0327
7 | AAGGACA | -0.0341
8 | TCCCACC | -0.0553
9 | ATTCCGC | -0.0379
10 | AGAAGGG | 0.0899
11 | CGCTCAC | -0.085
12 | TGTTGCA | -0.0526
13 | CCAATGA | -0.0924
14 | GTGAGGT | 0.0444
15 | GACTTTC | -0.0398
16 | AGACGCC | 0.0109
17 | AGTGTTA | -0.0379
18 | ACGTTTA | -0.00282
19 | CCAGATC | 0.0842
20 | TACATCA | 0.19

Row | Sequence | uncleaved DNA left (log2)
21 | TTGCTCA | -0.0483
22 | ATGGATC | -0.0751
23 | GTGCCAG | 0.0826
24 | TGCTGTG | -0.0324
25 | CCGGGCC | 0.0464
26 | CCGGACT | -0.13
27 | AGTGGCG | 0.0223
28 | GTTATCC | 0.0512
29 | CGACTGC | -0.0277
30 | CTGTTCC | -0.135
31 | CAGCTAA | -0.0646
32 | GACGGGC | 0.0217
33 | TCCGAGC | -0.0533
34 | ATATCCA | 0.049
35 | CCTATAT | -0.0369
36 | CACAACC | -0.0197
37 | ACAAAGC | 0.107
38 | ACAAGCG | 0.00429
39 | TGGTAAG | -0.0326
40 | TGTTGTG | -0.0131

Each sequence was assayed on T2, Rep nickase domain of wheat dwarf virus in the same assay as above.
T2 sequence (residues 1-137, tag not shown): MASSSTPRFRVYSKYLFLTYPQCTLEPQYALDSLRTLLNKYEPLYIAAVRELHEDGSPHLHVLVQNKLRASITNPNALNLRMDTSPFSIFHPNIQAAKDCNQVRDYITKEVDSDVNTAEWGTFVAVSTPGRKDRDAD
Procedure: as §1

Row | Sequence | uncleaved DNA left (log2)
41 | GATCGCT | -0.0197
42 | CAATATC | -1.97
43 | TTATGGT | -0.154
44 | CTATGCT | -0.255
45 | TTTTCAG | -0.116
46 | TAGCGTT | -0.138
47 | AAGGACA | 0.0392
48 | TCCCACC | -0.273
49 | ATTCCGC | 0.0626
50 | AGAAGGG | -0.0182
51 | CGCTCAC | -0.0905
52 | TGTTGCA | -0.224
53 | CCAATGA | -0.159
54 | GTGAGGT | 0.0407
55 | GACTTTC | 0.0373
56 | AGACGCC | 0.138
57 | AGTGTTA | 0.0319
58 | ACGTTTA | 0.000883
59 | CCAGATC | 0.083
60 | TACATCA | 0.217

Row | Sequence | uncleaved DNA left (log2)
61 | TTGCTCA | -0.0409
62 | ATGGATC | -0.0167
63 | GTGCCAG | 0.000201
64 | TGCTGTG | -0.0293
65 | CCGGGCC | 0.118
66 | CCGGACT | 0.0103
67 | AGTGGCG | -0.0948
68 | GTTATCC | 0.0893
69 | CGACTGC | 0.0302
70 | CTGTTCC | -0.0322
71 | CAGCTAA | 0.031
72 | GACGGGC | 0.0604
73 | TCCGAGC | 0.0664
74 | ATATCCA | 0.0628
75 | CCTATAT | -0.0972
76 | CACAACC | 0.0572
77 | ACAAAGC | 0.0278
78 | ACAAGCG | -0.0775
79 | TGGTAAG | 0.027
80 | TGTTGTG | -0.0494
